Read counts are not given, so values of variants with three or more changes are uncertain.
B1: LINE1-mini (parent)
chain: GGCAGAGCUCAACACAGCGUGGCAAAGUGGCUGUGGCUAGACUGCC

Variants of: B1
Experiment: self-cleavage, relative activity (ratio to wild type); higher = more cleavage; in vitro, sequencing; the parent is a self-cleaving ribozyme

Row | Variant | self-cleavage
1 | G2C A4G C8G G17A U38A | 0.04
2 | G7C U28C G29U | 0.07
3 | G2U A12G C15U U32C | 0.04
4 | A4U C23U G30A | 0.2
5 | G22U U28G G36C C37G | 0.03
6 | A6C C18G U20A | 0.17
7 | A16G G21C A24C G30A | 0.05
8 | A6G U9C C10U U20C A25C C37U | 0.01
9 | C3A A11G G19C U20A A26G C45U | 0.01
10 | U9C A14C C31A C46A | 0.03
11 | U20A G27U G40C C45G | 0.02
12 | C3A U28C C37U | 0.12
13 | G21U C23A G35U | 0.34
14 | C15A A25U C46U | 0.06
15 | G21A U34G G40A A41U | 0.02
16 | C23U G29C G33C C45A | 0.05
17 | G7U A16U G27U | 0.19
18 | C13G G29C C31U U38G A41C | 0.02
19 | C18A A39G C42U | 0
20 | A12G C23G G36A C42A | 0
21 | A12U G30U G33C | 0.01
22 | G1U U9A G17U | 0.01
23 | A4G C13U A14C G22A C46G | 0.07
24 | A4U G7A G22U U38C G40U A41C C46G | 0.1

Row | Variant | self-cleavage
25 | C37A C42G C45A C46A | 0.02
26 | A4G G17U C18A G33A | 0.57
27 | G2A G30U G36C C46A | 0.02
28 | G27U A39C C42G | 0.02
29 | C15A U20A C31G C45U | 0.06
30 | C10A C13A A39G A41C | 0.05
31 | C15A U20G A24U | 0.04
32 | G5C A12G G22A C23A G30U | 0.02
33 | C3A C8G C15A U43C | 0.02
34 | C3U A16C G35A | 0.01
35 | G2A G7U C10A A12G A26C | 0.06
36 | A4G G17U C18U U28C G35U A39U | 0.03
37 | G17C G29U G35A | 0
38 | G29U G40U A41U C46A | 0.32
39 | C13G A24U G33A | 0.04
40 | G5A A16U A24C G29C G40U | 0.04
41 | C8G G29U C45U | 0.03
42 | A6C G29A U34C | 0.15
43 | G1A A4G A12C G29A | 0.03
44 | C10G A12G A14G G17C | 0.01
45 | C10U A25C A39C | 0.14
46 | C3A U28A C45A | 0.13
47 | A11G C13A G21A U34C G40C | 0.02
48 | G7C U34G C45A | 0.08

Row | Variant | self-cleavage
49 | C13G U32C G36C | 0.09
50 | C10G G19C G21U G44U | 0.01
51 | G5A A25G U34A G35U C42G | 0.01
52 | C10A C23A A26G G36C G40U | 0.03
53 | G17U G27U G29U G36U | 0.17
54 | G7C C13G G17U | 0
55 | C10U G22A G36U C37A | 0.02
56 | C3A G17A C37G G44U | 0.03
57 | U20A G33U C42A | 0.06
58 | C8U C18G G44A | 0.3
59 | C15U U34A G36A | 0.04
60 | G5C U9G C10G G19U A39C C42G C45A | 0
61 | A6G U20A G22A | 0.02
62 | C13U C15A G22A U34G | 0.08
63 | C8U A14C A25C C31G | 0.06
64 | C3U C8A A25C U38C C46U | 0.46
65 | C3U U34A C45U | 0.03
66 | C15U C31U C46G | 0.12
67 | A11C A14U G17C C46A | 0.01
68 | C10A C23G A25C C45A | 0.02
69 | C13A G17C G29U U43A | 0.23
70 | C10A G22U G44A C46G | 0.01
71 | U28A G29C G30A | 0.72
72 | A12G A16C A39G | 0

Row | Variant | self-cleavage
73 | G1A G36A C37U | 0.1
74 | C8G G21C G22C G27C | 0.03
75 | A14C C18U U43A C45U | 0.03
76 | G30A C31U C42U | 0.05
77 | G5C C18G A26U | 0.05
78 | G22U C37U C46U | 0.02
79 | U28A G40A C46A | 0.03
80 | A4U U9A C23A | 0.11
81 | G2U G7C G17U A26G A39C | 0.04
82 | C8U U9C G21U | 0.06
83 | C10U G36U A39G C42G | 0
84 | G2A A4C G22A C45A | 0.15
85 | U32C G44U C45A | 0.05
86 | C3A A16G A25U G36C C37G | 0.01
87 | A11C G19U U38G | 0.03
88 | U9C G22C G36U | 0.01
89 | U9A A14U C15A U34A G36C G40U | 1.08
90 | G22U G36A G40A | 0.85
91 | G5U U20C A26U | 0
92 | A12C U38G C42A | 0.01
93 | A4U C10U A26G G27C U28G | 0.05
94 | G5U U20C A41U | 0.03
95 | G17C G22C C42A | 0.42
96 | U9C G21C A26C | 0.01

Row | Variant | self-cleavage
97 | G5A G17C G22C C46U | 0.04
98 | A12G C37A A39U U43A | 0.04
99 | G2C G7A C23G G30C | 0.34
100 | C13U C15U G35A A41G | 0.12
101 | A4C U9G C18G | 1.69
102 | G2A A4G C10U U28C | 0.08
103 | G19U A25U G33A | 0.08
104 | G2C G27A G40C | 0.03
105 | C3U G44C C46G | 0.04
106 | C13G A14G G44A | 0.06
107 | A11C G36U C46A | 0
108 | G5U C10G A16U U32A G35C | 0.01
109 | C8U G22C G30C G36C | 0.3
110 | G5U G7A C31A G44C | 0.06
111 | A16C G17U G21C G27C G36A | 0.12
112 | C3G A11C G29A G33C C46U | 0.01
113 | C8A U9G C13U | 0.03
114 | C3G G19U G35C | 0.07
115 | C13U C15G U32G C46G | 0
116 | C8A G21C C31A U34G G40U | 0.03
117 | G5A G19C A25U G35A G40U | 0.12
118 | C13G G17C G27C U34G | 0
119 | G1A A25C A39G | 0.12
120 | G27C G29A G40C | 0.14

Row | Variant | self-cleavage
121 | A26U G30A C42G | 0.01
122 | C3A G30C C42G C46A | 0.02
123 | G21U G22A U28G | 0.28
124 | A24C G27C C37U | 0
125 | A12G C15A G19C C37A | 0.01
126 | A25C G33C U34C G35U | 0.23
127 | A6U G21A A26U | 0.74
128 | A6G G17U C23U G29U A41C | 0.06
129 | C3U U32A G33U A39G | 0.03
130 | G5A G40C A41U | 0.1
131 | C8A U34G U38A | 0.47
132 | A11G A26G G40A C45U | 0.01
133 | A6U G27C G35U G36U C46G | 0.71
134 | C13A G27A G40A | 0.06
135 | C15A G21U U28A | 0.04
136 | C8U C15G C37U A39C | 0.21
137 | C10U C18A G21U | 0.49
138 | G5C U9C A16G C23U | 0
139 | A4U G7A C10G U20C U34A A41U | 0.01
140 | C8U A11U U43C | 0.02
141 | C18U G35U G40C | 0.02
142 | G5U U9C G29U | 0.08
143 | A25C A26G C42G G44U | 0.06
144 | A4G C31A A39C | 0.03

Row | Variant | self-cleavage
145 | G2U G22A G33C G40A | 0.02
146 | A12G G36U C42G C45A | 0.08
147 | G2C C18G C45U | 0.02
148 | U9G G19C A41C | 0.06
149 | A4G A12G C23A G29C C37A | 0.26
150 | C3U C13U G22A | 0.17
151 | G1C G2U G5U A16C | 0.03
152 | G5U U32C C45G | 0.07
153 | G2U C13A A16G U32C | 0.02
154 | G2C A12G G17A C18U U34A C37U | 0.02
155 | G2A A6U G35A | 0.06
156 | A14G G21C G29C | 0.11
157 | A11G C23U U34C U38G C46G | 0
158 | C13A C15G G27U | 0.03
159 | C8A C23G A26G G33U G40U | 0.32
160 | G17U U20A U32G A41G | 0.06
161 | A12C C15G A24G | 0.01
162 | G5A A6C C10A G19C G29A | 0.03
163 | A6C G36C A39U | 0.16
164 | A6U A11U C15A C45A | 0.03
165 | U9G C13U G30U C37U | 0.03
166 | U9G C15A C23U A26C | 0.02
167 | C13U A14C A25G G36U | 0.01
